Data reported in PubChem BioAssay AID1347073 (National Center for Advancing Translational Sciences (NCATS), 2019).
Screen size: about 45,000 compounds; about 200 (0.44%) were called active. Not shown: some 7% with an inconclusive outcome. The call rests on the fitted dose curve; in most records, active means well fitted activation curve with a large enough effect; inconclusive means small, poorly fitted or top-dose-only effect; inactive means no such curve, though single readings can be large or run the other way. The list shows a part of the results.

Assay: qHTS of TDP-43 Inhibitors: NCGC Sytravon Library Screen; further: 0% is about no effect; nearly all actives have a fitted effect of over 55% in size
Conditions: yeast TDP-43 toxicity rescue, BacTiter-Glo growth, 24 h; series mostly up to 46.1 µM; growth rescue (activation): at the top concentration
In short: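 TDP-43-expressing yeast, pregrown in raffinose, seeded at OD600 0.02 in galactose medium with compound for 24 hr at 30 deg C. Growth read by BacTiter-Glo luminescence, so rescue of toxicity appears as activation.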

SMILES	growth rescue (activation)
C=CCNC(=S)NNC(=O)c1ccc(=O)n(Cc2ccccc2)c1	inactive: 2.21%
Cc1ccc(NS(=O)(=O)c2cccs2)cc1S(=O)(=O)N1CCCCCC1	inactive: 5.22%
O=C(Nc1ccccc1-c1ccccc1)NC1CC2CCCC(C1)N2Cc1ccc(F)cc1 (configuration not stated)	inactive: 6.45%
Nc1cc(=O)[nH]c(SCC(=O)Nc2ccc(Oc3ccccc3)cc2)n1	inactive: -10.8%
Cc1ccc(NC(=O)C(C)Sc2nnc(C)n2CC2CCCO2)cc1 (configuration not stated)	inactive: -8.56%
COc1ccc(S(=O)(=O)NC(=O)C2(C)CCN2C(=O)CCC2CCCC2)cc1OC (configuration not stated)	inactive: -12.7%
N#Cc1ccc(C(=O)N(Cc2ccccc2)c2ccccc2)cc1	inactive: 26.4%
Cc1ccc(C(=O)CSc2nc(-c3ccccc3)ccc2C#N)cc1	inactive: 5.16%
CC(C)(C)C(=O)CN1C(=O)NC(c2ccccc2)(c2ccccc2)C1=O	inactive: -5.15%
COc1cc(-c2nn3c(C4CCCCC4)nnc3s2)cc(OC)c1OC	inactive: -3.19%
CC(=O)c1ccc(NC(=O)CN2CCC(C(=O)c3ccc4c(c3)OCCO4)CC2)cc1	inactive: 16.9%
O=C(Nc1cccc(Br)c1)C1CC(=O)N(C2CCCC2)C1 (configuration not stated)	inactive: 6.09%
CC(NC(=O)C(C)N1c2cccc3cccc(c23)S1(=O)=O)c1ccccc1 (configuration not stated)	inactive: -12.6%
Cc1ccccc1N1CCN(C2CCCN(C(=O)c3ccc(Cl)s3)C2)CC1 (configuration not stated)	inactive: 17.7%
Cc1ccc(-c2n[nH]c(=S)c3ccccc23)cc1	inactive: 4.21%
CN(c1ccccc1)S(=O)(=O)c1ccc(Cl)c(C(=O)NCc2ccco2)c1	inactive: 1.21%
Cc1ccc(N2CC(C(=O)N3CCC(C(=O)Nc4nnc(C(C)C)s4)CC3)CC2=O)cc1 (configuration not stated)	inactive: 14.4%
CCOc1ccc(N2C(=O)CC(N(CCc3ccc(OC)cc3)C(=O)c3cccc(F)c3)C2=O)cc1 (configuration not stated)	inactive: 15.3%
COc1ccc(NC(=O)C2(C)CCCN(C(C)=O)C2)cc1F (configuration not stated)	inactive: -14.1%
COc1cccc(N=c2oc3cc(O)ccc3cc2C(=O)NCC2CCCO2)c1 (configuration not stated)	inactive: 13.2%
COc1ccc(N(C(C)=O)c2nc(C)cc(C)c2C#N)c(OC)c1	inactive: -15.4%
CCC(C)NC(=O)C1CCC(=O)N1Cc1ccc(C)cc1 (configuration not stated)	inactive: 9.82%

SMILES	growth rescue (activation)
CCCCOc1ccccc1/C=N/NC(=O)CC#N	inactive: -2.41%
CCC(CO)NC(=O)c1cccc(S(=O)(=O)N2c3ccccc3CC2C)c1 (configuration not stated)	inactive: -15.7%
O=C(OCc1nnc(-c2ccc([N+](=O)[O-])cc2)o1)C1CCN(C(=O)c2ccc(Cl)cc2)CC1	inactive: 15.7%
COc1ccc(CNC(=O)N2CCN(S(=O)(=O)c3ccccc3)CC2)cc1	inactive: -20.6%
O=C(N/N=C/c1cc(Br)cc(Br)c1O)c1cccc(N2CCCC2=O)c1	inactive: 4.95%
Cn1cccc1CNC(=S)Nc1cc(F)cc(F)c1	inactive: -3.75%
N=C1CCCN1CC(=O)c1ccc(Cl)cc1	inactive: 13.6%
Cc1csc(SCC(=O)Nc2ccc(Cl)cn2)n1	inactive: 3.88%
CCOC(=O)C1CCCN(C(=O)c2cc(-c3cccs3)oc2C)CC1 (configuration not stated)	inactive: 34.1%
O=C(CCl)Oc1ccc2occ(C(=O)c3cccs3)c2c1	inactive: -8.88%
O=C(O)CSc1c2c(nc3cc(C(=O)NCCN4CCOCC4)ccc13)CCC2	inactive: 15.3%
COc1ccc(CC(=O)N2CCc3cc(OC)c(OC)cc3C2)cc1	inactive: 4.77%
Cc1ncc(CO)c(/C=N/NC(=O)c2ccc(O)cc2)c1O	inactive: 12.5%
CCc1nc2ccc(C(=O)NCCN3CCOCC3)cn2c1N(CC)CCOC	inactive: 0.866%
Cc1cc(C)n(CCCNCC(O)c2ccccc2)n1 (configuration not stated)	inactive: 7.2%
Cc1cccc(NC(=S)N(Cc2cccs2)Cc2cc3cc(C)ccc3[nH]c2=O)c1	inactive: 16.3%
O=C(CC1(O)C(=O)c2ccccc2C1=O)c1ccccc1	inactive: 1.4%
CC1(C)CC2CC(C)(CN2C(=O)c2ccc([N+](=O)[O-])cc2)C1 (configuration not stated)	inactive: 2.92%
COc1ccccc1C1/C(=C(/O)c2ccccc2)C(=O)C(=O)N1CCO (configuration not stated)	inactive: -21.1%
Cc1ccc(C(=O)NCC2CCCO2)cc1S(=O)(=O)N1CCCCC1 (configuration not stated)	inactive: 4.04%
Cn1nc(C(C)(C)C)cc1C(=O)N1CCCCC1c1cc(C(=O)Nc2cccc3c2CCCC3)no1 (configuration not stated)	inactive: -4.42%
CCc1ccc(C(=O)CN2C(=O)NC(C)(c3ccc(C)cc3)C2=O)cc1 (configuration not stated)	inactive: 0.27%

SMILES	growth rescue (activation)
Cc1cc(-c2ccccc2)n(-c2ccc(C(N)=O)cc2)n1	inactive: -4.38%
O=S(=O)(NCC1CCCO1)c1ccc(S(=O)(=O)N(Cc2ccccn2)C2CC2)cc1 (configuration not stated)	inactive: 14.3%
CC1(C)CC(=O)c2sc(NS(=O)(=O)c3ccc(Cl)cc3)nc2C1	inactive: 11.5%
CC(C)c1ccc(N(C(=O)c2csnn2)C(C(=O)NC2CCCC2)c2cccnc2)cc1 (configuration not stated)	inactive: 21.7%
O=C1NC2(CCCCCC2)C(=O)N1Cc1cccc([N+](=O)[O-])c1	inactive: 5.14%
O=C(COC(=O)c1n[nH]c(=O)c2ccccc12)Nc1ccccc1	inactive: -7.31%
CC1CCN(S(=O)(=O)c2ccc(C(C)C)cc2)CC1	inactive: -44.3%
O=C(N/N=C/c1cccnc1)c1cccc(NC(=O)c2ccccc2Cl)c1	inactive: 2.94%
Cc1ccc(S(=O)(=O)Oc2ccc(/C=N/N=C3/NC(=O)C(CC(=O)O)S3)cc2)cc1 (configuration not stated)	inactive: 3.37%
Cc1cc(C)cc(C(O)c2ncc(-c3ccc(C(F)(F)F)cc3)[nH]2)c1 (configuration not stated)	inactive: 5.85%
Cc1ccc(C(=O)OCC(=O)N2CCC(c3ccccc3)=N2)cc1	inactive: 19.8%
CN(c1ccccc1)S(=O)(=O)c1cccc(C(=O)OCC(=O)NCc2ccc3c(c2)OCO3)c1	inactive: -12.3%
CCCCNC(=O)C1c2cc(OC)c(OC)cc2C(=O)N(C)C1c1cccs1 (configuration not stated)	inactive: 4.62%
CCOc1ccc(C(=O)C[n+]2ccc(C(=O)NCCO)cc2)cc1	inactive: -20.9%
COc1cc(/C=N\NC(=O)c2ccc(C)nc2)ccc1OC(=O)c1cccc(F)c1	inactive: 9.32%
O=C(CN1C(=O)NC2(CCCC2)C1=O)Nc1ccc(Cl)c(C(F)(F)F)c1	inactive: -3.07%
Cc1ccc(C(=O)c2c[nH]c3c(F)cc(F)cc3c2=O)cc1	inactive: 1.28%
CSCCC(NS(=O)(=O)c1ccc2c(c1)oc(=O)n2C)C(=O)NCc1cccs1 (configuration not stated)	inactive: 29.3%
O=C(Nc1ccc2c3c(cccc13)CC2)c1ccco1	inactive: -17.1%
C/C(=N\NC(=O)C(N)=O)c1ccc(OC(F)F)cc1	inactive: -1.74%
CCCNC(=S)NNC(=O)c1cccs1	inactive: -10.6%
CC/C(=N/OC(=O)c1cccc(C)c1)C(=O)c1cccs1	inactive: 32.2%

SMILES	growth rescue (activation)
Cc1nc(C)c(C(=O)NNC(=O)c2ccc(Br)cc2)s1	inactive: 9.08%
Cc1ccc(S(=O)(=O)N(C)C)cc1NC(=O)CCNC(=O)c1ccccc1Cl	inactive: 5.52%
Cc1cccc(Nc2cc(C)nc3ccccc23)c1	inactive: 5.81%
O=C(NC(c1ccc2ccccc2n1)c1cccs1)C1CCN(Cc2cccc(C(F)(F)F)c2)CC1 (configuration not stated)	inactive: 23.3%
COc1cccc(NC(=O)c2ccc3nsnc3c2)c1	inactive: 36.6%
COc1cc(NC(=O)COC(=O)CCc2nc3ccccc3c(=O)[nH]2)cc(OC)c1	inactive: 5.99%
O=C(Cc1ccc(Cl)cc1)NCC(=O)N1CCCC1	inactive: -27.9%
CCCCC(Br)C(=O)Nc1ccc(S(=O)(=O)Nc2cc(C)nc(C)n2)cc1 (configuration not stated)	inactive: 4.99%
CC(CC1CC(C)(C)OC1=O)C(=O)Nc1ccc([N+](=O)[O-])cc1 (configuration not stated)	inactive: -0.0885%
CCn1c(=O)c(C(=O)NNC(=O)c2ccccc2)c(O)c2ccccc21	inactive: -49.2%
COc1ccc(NC(=O)c2cn(C)c(=O)c3cc(OC)c(OC)cc23)cc1OC	inactive: 7.93%
O=C(NCCc1c[nH]c2ccccc12)c1cc(Cl)c2c(c1)OCO2	inactive: 28.1%
CCOc1ccc(S(=O)(=O)NC2CCCCCC2)cc1	inactive: 13.1%
COc1ccc(-n2nc(C(=O)NCC(=O)N(C)Cc3ccccc3)c3ccccc3c2=O)c(OC)c1	inactive: 5.14%
O=C(Cc1c[nH]c2ccccc12)Nc1nnc(C2CC2)s1	inactive: -10.8%
COc1ccc(/C=C2\SC(=S)N(CC(=O)OCC(=O)Nc3ccc(C)cc3Cl)C2=O)cc1	inactive: 0.903%
CC(C(=O)Nc1ccc(S(=O)(=O)N2CCOCC2)cc1)N(c1ccccc1)S(C)(=O)=O (configuration not stated)	inactive: 4.83%
O=C(COC(=O)/C=C/c1cccc(Br)c1)NC1CCCC1	inactive: 0.844%
Cn1nccc1-c1ccc(C(=O)Nc2cccc(NS(C)(=O)=O)c2)c2occc12	inactive: -13.6%
CCn1c(O)c(C2=c3ccccc3=NC2=O)c2cc(Br)ccc21	inactive: 10.1%
CC1(C)Cc2ccccc2C(=C(C#N)C#N)N1	inactive: 11.9%
c1ccc(CNc2nc(NCC3CC3)nc3cc(-c4ccccc4)sc23)cc1	inactive: 19.5%

SMILES	growth rescue (activation)
Cc1cc(Br)ccc1SCC(=O)OCC(=O)NCc1ccco1	inactive: 20.7%
CCOC(=O)c1ccc(N2Cc3ccccc3C2=NC(=O)c2cccs2)cc1	inactive: 13.2%
COc1cc(C(=O)NCCSc2ccccc2)cc(OC)c1OC	inactive: 5.81%
Cc1c(C(=O)N2CCN(c3ccccc3)CC2)sc2ncnc(N3CCN(c4ccccn4)CC3)c12	inactive: 12.6%
Cc1cc(C(=O)OCC(=O)NC(=O)NC(C)(C)C)c(C)o1	inactive: -8.73%
CCOc1ncccc1C(=O)OCC(=O)Nc1ccc(C)c(S(=O)(=O)N2CCOCC2)c1	inactive: 11.8%
CC(C)c1nnc(NC(=O)COc2ccccc2[N+](=O)[O-])s1	inactive: 15.2%
CCOc1ncccc1C(=O)OCC(=O)Nc1ccc(-c2nc3ccc(C)cc3s2)cc1	inactive: -29.3%
Cc1nc(NC(=O)CSc2nnc(-c3ccncc3)n2C)sc1C	inactive: -25.1%
COc1ccc(OC)c(C(=O)COC(=O)COc2ccccc2)c1	inactive: -14.1%
Cc1ccc(CNC(=O)c2ccccc2-n2cnnn2)cc1	inactive: 14.7%
CC(OC(=O)/C(C#N)=C/c1ccco1)C(=O)N(C)c1ccccc1 (configuration not stated)	inactive: 11.7%
O=C(CSc1nc2[nH]c(=O)cc(O)c2s1)NCCc1ccccc1	inactive: 17.8%
O=C(O)C1CCC(CN(Cc2cccc(Br)c2)C(=S)Nc2ccccc2F)CC1 (configuration not stated)	inactive: 20.9%
Cc1ccc(-c2nnc(/C=C/c3ccccc3)o2)cc1	inactive: 22.9%
CC1CCN(C(=S)c2cn(Cc3cccc(F)c3)c3ccccc23)CC1	inactive: 7.83%
O=C1CN(S(=O)(=O)c2cc(Cl)ccc2Cl)c2ccccc2N1	inactive: -3.57%
O=C(Nc1nnc([C@@H]2C[C@H](O)[C@@H](CO)O2)s1)Nc1cccc2ccccc12	inactive: -0.302%
CC(C)CC(N)c1csc(NC(=O)NCCc2ccccc2)n1 (configuration not stated)	inactive: 7.78%
